Results from ChEMBL document CHEMBL4888484, “Replenishing the malaria drug discovery pipeline: Screening and hit evaluation of the MMV Hit Generation Library 1 (HGL1) against asexual blood stage Plasmodium falciparum ,using a nano luciferase reporter read-out” (2022).
About 540 (0.36%) of roughly 150,000 compounds showed an effect of 50% or more. This is one part of the list.

Test system: Plasmodium falciparum
Test: Primary screen in NF54 nanoGlo assay, in single point, at 2uM, 72h; a lower Z score goes with more inhibition
Type: functional, Erythrocyte
Settings: timepoint 72 hour

Row | SMILES | % Inhibition [%] | Z score
1 | CC(C)(C)[C@@H](O)CCNC(=O)CC1CCCC1 | -6 | 1.29
2 | COc1cccc(OC)c1C(=O)Nc1ccc(N2CCCCC2=O)c(C)c1 | -8 | 1.25
3 | COc1ccc(Cc2nc(-c3ccc4c(c3)nc(C)c(=O)n4C3CCCC3)no2)cc1OC | -6 | 0.62
4 | CCOC(=O)c1ccc(N(C)Cc2ccc3c(c2)OCO3)nc1 | 0 | -0.01
5 | CN1CCO[C@@H](CNCCOc2ccccc2C#N)C1 | 5 | -0.74
6 | C[C@@H](c1ccccc1)N(C)Cc1nccn1C1CC1 | -8 | 1.08
7 | Cc1csc(N(C(=O)CC[C@H]2CCCO2)C2CC2)n1 | -14 | 1.84
8 | CCOc1ccc(C/C(=C/N)c2nc(-c3ccc(Cl)cc3)cs2)cc1 | 46 | -5.17
9 | CCOC(=O)N1CCN(C(=O)c2c(O)c3cccc4c3n(c2=O)CC4)CC1 | 8 | -0.94
10 | Cc1ccc(CNC(=O)C2CCC(=O)N(C)C2c2cccc(F)c2)o1 (stereo not given) | -2 | 0.37
11 | COc1ccc2c(c1)-c1nc(-n3ncc(C(=O)N4CCC(CO)CC4)c3C3CC3)ncc1CC2 | 0 | 0.02
12 | Cc1cccc(-c2ncc(C(=O)N[C@H]3CCCCNC3=O)c(O)n2)c1 | -3 | 0.64
13 | CCc1ccc(C(=O)NCc2nnc(CC)o2)[nH]1 | 6 | -0.75
14 | CCN1C(=O)C(C)(C)N[C@]1(C)Cc1ccc(O)cc1 | -8 | 0.78
15 | Cc1cc(=O)n2nc(CN(C)c3cnn(C)c3)sc2n1 | -6 | 1.14
16 | CN(C)c1ccccc1C(=O)N[C@H]1CC(=O)N(CCCc2ccccc2)C1 | 1 | -0.09
17 | CC(=O)N(c1nc(COc2nc(C(C)(C)C)no2)cs1)c1ccccc1F | 42 | -1.58
18 | Cc1cn2nc(NCc3cccs3)sc2n1 | 3 | -0.43
19 | OC[C@@H](Nc1nc(-c2ccncc2)nc2c1CCNCC2)c1ccccc1 | 5 | -0.56
20 | CC(C)[C@@](C)(C#N)NC(=O)c1ccccc1F | -10 | 1.11
21 | O=C(CCOCC(F)(F)F)NC(c1cccs1)c1cccs1 | 4 | -0.6
22 | CN(C(N)=NCCN1CCc2c(Cl)cccc2C1)C1CC1 | 8 | -1.07

Row | SMILES | % Inhibition [%] | Z score
23 | Fc1ccc(-c2cncc(CN3CCCC3)c2)c(F)c1 | -5 | 0.48
24 | O=C(Cn1c(-c2cccs2)cc2cc(F)ccc21)N1CCN(c2cccc(Cl)c2)CC1 | -1 | 0.14
25 | Cc1cnc(C(=O)NC[C@H]2CCCN(Cc3cccc(O)c3)C2)cn1 | -7 | 1.09
26 | Cc1ccc(-c2ncn(C3CCCCC3)c2-c2ccc(C(=O)NCCCN3CCOCC3)o2)cc1 | 0 | -0.06
27 | Cc1ccc(Nc2cc(C)n3c(=O)n(Cc4ccc(F)cc4)nc3n2)cc1 | -12 | 1.25
28 | CCCN(C[C@H]1CCCCO1)C(=O)c1ccoc1 | -8 | 0.81
29 | COCC(C)(CNC(=O)CC1C=CCC1)NC(=O)CC1C=CCC1 (stereo not given) | 3 | -0.44
30 | CC1(C)OCC[C@@H]1CNC(=O)N[C@H]1C[C@H](c2cccc(Cl)c2)C1 | 27 | -3.57
31 | CC(C)(C)NC(=O)N1CCC(=C2CCC2)CC1 | -15 | 2.33
32 | c1cc(COc2ccc(N3CCCC3)cc2)no1 | 31 | -3.52
33 | CCN(CC(=O)N1CCCCCC1)C(=O)c1cc(F)cc2ccoc12 | -1 | 0.11
34 | O=C(NCc1ccnc(N2CCCCCC2)c1)NC1CC2CCC1O2 (stereo not given) | -1 | 0.21
35 | O=C(CCc1nc(-c2ccsc2)no1)NCc1ccc(C2CC2)cc1 | 2 | -0.2
36 | COc1cc(CN2CCCN(c3ccc(C)cc3NC(=O)c3ccccc3OC)C2=O)cc(OC)c1 | -3 | 0.43
37 | Cc1c[nH]c(CN2CCC[C@H](CCC(=O)N3CCOCC3)C2)n1 | 11 | -1.65
38 | O=C1C(=O)N(C/C=C/c2ccccc2)c2ccccc21 | -33 | 3.85
39 | CC(C)c1ccc([C@@H](NC(=O)CN2CCCN(C)CC2)C(C)C)cc1 | -10 | 1.46
40 | CN(C)CCNC(=O)c1cc2c(n1C)CCN(Cc1ccc(F)cc1)C2 | 6 | -0.68
41 | CCn1c(CCc2ccc(NC(=O)c3ccc(F)cc3)cc2)nc2ccccc21 | -9 | 0.86
42 | O=C(c1cc2n(n1)CCC2)N1CC2(CC2)c2ccccc21 | -2 | 0.25
43 | C[C@@H](c1nc2c(s1)CCCC2)n1cc(-c2ccc(CO)o2)nn1 | 5 | -0.64
44 | COC1CCC(CC(=O)N[C@H]2CC(=O)N(c3ccccc3)C2)CC1 (stereo not given in full) | 31 | -0.94

Row | SMILES | % Inhibition [%] | Z score
45 | CC(C)c1csc(CNC(=O)c2ccc(CO)nc2)n1 | -10 | 1.59
46 | COc1ccc(C(=O)N2CCN(c3cc(C)n4c(C)nnc4n3)CC2)cc1 | -13 | 1.66
47 | Cc1cccc2oc(CCNS(=O)(=O)Cc3ccccc3)nc12 | 2 | -0.21
48 | Cc1cc(-c2noc(CNC(=O)c3sc(C)nc3C)n2)no1 | -10 | 1.3
49 | CCn1nc(-c2ccc(C)c(S(=O)(=O)NCc3ccc(C)cc3)c2)c2c(c1=O)CCCC2 | -4 | 0.66
50 | Cc1cccc(=O)n1CC(C)(O)C(=O)NC1CCCc2ccccc21 (stereo not given) | -11 | 1.71
51 | CC(C)c1ccc(C#N)c(N[C@H]2C[C@H]3OCC[C@@H]23)n1 | 0 | -0.09
52 | CC(=O)Nc1cc(C(=O)N(C)CCCN2CCCCC2)cc2ncn(CCc3ccccn3)c12 | -8 | 1.19
53 | COc1ccc(C(=O)N2CCN(c3ccc(NC(=O)c4cccs4)cc3C(=O)NCc3ccc(F)cc3)CC2)cc1 | -4 | 0.65
54 | Cc1cccc(-c2noc(N3CCOCC3)c2CN(C(=O)C2CCCC2)C2CC2)c1 | 3 | -0.47
55 | Cc1nc(C(=O)NC[C@@H](c2sccc2C)N(C)C)cs1 | -8 | 1.44
56 | Cc1csc(CNC(=O)C(=O)NCCc2ccc3c(c2)OCO3)n1 | 0 | -0.08
57 | c1ccc(COc2ccc(-c3cn[nH]c3)cc2)cc1 | -12 | 1.58
58 | CNCCc1c(-c2ccccc2)[nH]n(-c2ccccc2)c1=O | 82 | -6.33
59 | Cc1noc(C)c1NC(=O)N1CCS(=O)(=O)CC1 | 1 | -0.18
60 | O=C(NCCN1CCN(c2cccc(Cl)c2)CC1)c1n[nH]c2c1COc1ccccc1-2 | -5 | 0.84
61 | CC(=O)NC1CCC(NCCOc2cccc(Cl)c2)CC1 (stereo not given) | -11 | 2.04
62 | CC(C)(C)C(=O)NCCCC(=O)N(CC1CC1)CC(F)(F)F | 0 | -0.02
63 | Cc1nn(CC(=O)Nc2csnc2-c2cccc(C(F)(F)F)c2)c(=O)n1C | 6 | -0.72
64 | C[C@H](NS(C)(=O)=O)c1ncnn1C1Cc2ccccc2C1 | -8 | 0.99
65 | C[C@H]1CN(c2nccnc2C#N)CCN1c1nccc(C(F)(F)F)n1 | -5 | 0.9
66 | CC(C)(C)OC(=O)N[C@H]1CCN(c2ccc(-c3ccccc3F)nn2)C1 | -1 | 0.15

Row | SMILES | % Inhibition [%] | Z score
67 | CC(=O)N1CCN(C(=O)c2c(-c3cccs3)noc2[C@H](C)O)CC1 | -4 | 0.6
68 | Cc1ccc([C@@H]2c3[nH]c4ccccc4c3CCN2S(=O)(=O)c2cccc(F)c2)cc1 | -9 | 1.1
69 | Cc1ccc(Cl)cc1NCC(=O)NCC(F)(F)F | 3 | -0.42
70 | Cc1ccc(-c2nc(CN(C)[C@H]3CCS(=O)(=O)C3)co2)c(C)c1 | -11 | 1.72
71 | CC(C)(C)CC(=O)NC[C@H](Cc1cccnc1)C(=O)O | 1 | -0.19
72 | C[C@@H]1Oc2ccc(NC(=O)c3occc3-c3ccccc3)cc2NC1=O | -13 | 1.21
73 | Cc1ccc(CNC(=O)CCc2nnc(C(=O)Nc3ccc(F)cc3)s2)o1 | -9 | 1.57
74 | Cc1cc(C)nc(CCNc2nc3c(s2)c(C)nn3C)n1 | 8 | -0.75
75 | Cc1c(-c2ccc(F)cc2)nn2c(-c3ccncc3)ccnc12 | -8 | 1.16
76 | O=C1N(Cc2ccccc2F)CCC[C@@]12CCN(Cc1cccnc1)C2 | 2 | -0.31
77 | O=C(Nc1nccs1)c1ccc2c(c1)OCCO2 | -18 | 3.39
78 | O=C(Cc1ccccc1)Nc1ccc(N2CCCN(Cc3cccc(C(F)(F)F)c3)C2=O)cc1 | -10 | 1.28
79 | COc1cc2c(-c3ccccc3)c(C)oc2cc1CN1CCN(C)CC1 | -13 | 1.95
80 | Cc1sc(-c2cc(C(F)(F)F)[nH]n2)cc1S(=O)(=O)N1CCN(C)C(=O)C1 | -9 | 1.79
81 | CCO[C@H](c1noc(CCn2cccn2)n1)C1CCCC1 | -11 | 1.48
82 | O=C(NC1(c2c(F)cccc2F)CCCC1)[C@H]1CCS(=O)(=O)C1 | -5 | 0.97
83 | CN1CC(C(=O)N2CCCC2c2cccc3c2OCCO3)CC1=O (stereo not given) | -5 | 0.9
84 | CN(CCc1cn[nH]c1)Cc1cnc2ccccc2c1 | -6 | 1.24
85 | Fc1cccc(-c2noc(C3(c4cccc(Cl)c4)CCOCC3)n2)c1 | -9 | 1.74
